# In PubChem BioAssay AID1508649 (National Center for Advancing Translational Sciences (NCATS), 2021):
# Hit rate of the full screen: of about 43,000 compounds, about 830 (1.9%) were called active. Inconclusive means that the source gave no clear call. Such entries were picked first, then a sample of the others. Rule for the calls: active = clear falling dose curves in both reporters; inconclusive = both reporters move, but less clearly or upward; inactive = either reporter flat; the % is the NLuc reporter signal. No potency is given beside an inconclusive call; the fits are too rough.
# Assay: Cell-based coincidence reporter assay to measure PMP22 gene transcription in S16 Pmp22-F2sN cells - Primary screen
# Details: S16 Pmp22-F2sN Schwann cells (luciferase reporters placed in the Pmp22 gene), FLuc/NLuc coincidence luminescence, 24 h; measured here: NLuc reporter readout, at 57.5 µM (top of the series); activity change, negative = inhibition: at the top concentration
# In short: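 Schwann cells carrying the coincidence reporter were exposed to library compounds for 24 h at 37C, then lysed and read for FLuc and, after quenching, NLuc luminescence on a CCD imager.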
# % is set by controls: 0 for no effect and ±100 for the full control effect; potency is the fitted concentration of half-maximal effect; tags give direction and shape of the fitted curve.
SMILES,Potency,"activity change, negative = inhibition"
Cc1ccc(-c2nc(Cn3c(SCc4ccc(F)cc4)nc4cccnc43)c(C)o2)cc1,active: 7.38 µM,–
COc1ccc(Cn2c(=O)c3ccccc3n3c(-c4ccc(C)cc4)nnc23)cc1,"inconclusive [phenotype inactive, partial curve]",–
CC(C)c1ccc(CNCCSc2nnnn2-c2ccccc2)cc1,"inconclusive [phenotype inactive, single point]",–
CCN1CCN(c2cc(C)c3cc(NC(=O)/C=C/c4ccc(OCCC(C)C)cc4)ccc3n2)CC1,"inconclusive [phenotype inactive, partial curve]",–
CC(C)Oc1ccc(CNC(=O)c2ccc3c(c2)N(C)C(=O)C2CCCCN32)cc1 (stereo unspecified),"inconclusive [phenotype inactive, single point]",–
CCC1CCCCN1CCCNC(=O)c1ccc2c(c1)N(Cc1cccc(Cl)c1)C(=O)c1ccccc1S2(=O)=O (stereo unspecified),"inconclusive [phenotype inactive, single point]",–
O=C(Nc1ccc2oc(-c3ccc(Br)cc3)nc2c1)c1cc2ccccc2o1,–,inactive: -23.7%
Cc1ccc(NC(=O)c2ccc(-c3ccccc3)s2)cc1,–,inactive: -3.47%
COc1ccc(OC)c(NC(=O)c2nnn(CC(=O)Nc3ccc(C(C)C)cc3)c2N)c1,–,inactive: -27%
COc1ccccc1CCNC(=O)C1(c2cccs2)CCOCC1,–,inactive: 11.7%
COc1ccc(N2CCN(C(=O)C3CCCN(S(=O)(=O)c4ccc5c(c4)oc(=O)n5C)C3)CC2)cc1 (stereo unspecified),"inconclusive [phenotype inactive, partial curve]",–
Cc1cccc(NC(=O)CN2C(=O)C(c3ccc(F)cc3)=NC23CCCCCC3)c1C,"inconclusive [phenotype inactive, single point]",–
O=C(CCNS(=O)(=O)c1ccc2c(c1)CCN2C(=O)C1CC1)Nc1ccc(Cl)cc1,"inconclusive [phenotype inactive, partial curve, poor fit]",–
CCOC(=O)c1ccc(NC(=O)c2nc(SCc3ccc(F)cc3)ncc2Cl)cc1,–,inactive: -29.1%
Cc1ccc(C)c(NC(=O)c2oc(=O)c3ccccc3c2-c2ccccc2)c1,"inconclusive [phenotype inactive, single point]",–
O=C(NCCO)c1ccc(-c2nnc(Nc3ccc(OC(F)(F)Cl)cc3)c3ccccc23)cc1,"inconclusive [phenotype inactive, single point]",–
CCOC(=O)c1c(-c2ccccc2)csc1NC(=O)c1nc(SCC)ncc1Cl,–,inactive: -50.3%
CCC(C)[C@H](N)c1nnc(SCc2ccc(Cl)c(Cl)c2)o1 (stereo partly specified),"inconclusive [phenotype inactive, single point]",–
O=C(CCC1N=C2c3ccccc3N=C(SCc3cccc(Cl)c3)N2C1=O)NCCc1ccccc1 (stereo unspecified),"inconclusive [phenotype inactive, single point]",–

SMILES,Potency,"activity change, negative = inhibition"
COc1cccc(N2CCN(C(=O)CN3CCSc4ccc(S(=O)(=O)N(C)C)cc43)CC2)c1,"inconclusive [phenotype inactive, partial curve]",–
CCN(CC)c1ccc(NC(=O)CN2C(=O)c3cccnc3Oc3ccccc32)c(C)c1,–,inactive: -43.4%
CC(=O)N1CCCc2cc(S(=O)(=O)N3CCCC(C(=O)N4CCN(c5ccccc5F)CC4)C3)ccc21 (stereo unspecified),"inconclusive [phenotype inactive, single point]",–
COC(=O)c1sccc1S(=O)(=O)N(CC(=O)Nc1cc(C)cc(C)c1)c1ccc(Cl)cc1,"inconclusive [phenotype inactive, partial curve, poor fit]",–
CCc1cccc(N2C(=O)CSC23C(=O)N(Cc2ccccc2F)c2ccccc23)c1 (stereo unspecified),"inconclusive [phenotype inactive, single point]",–
Cc1ccc2[nH]c3c(=O)n(CC(=O)NCCCN4CCN(c5ccc(F)cc5)CC4)ncc3c2c1,"inconclusive [phenotype inactive, partial curve, poor fit]",–
CCOC(=O)c1c(C)oc2ccc(N(C(=O)c3ccncc3)S(=O)(=O)c3ccc(F)cc3)cc12,"inconclusive [phenotype inactive, single point]",–
Cc1ccc(C)c(N2CCN(S(=O)(=O)c3ccc(F)c(C(=O)Nc4ccc(Cl)cc4Cl)c3)CC2)c1,"inconclusive [phenotype inactive, single point]",–
CCOc1ccc2nc(C)cc(Nc3ccccc3OCC)c2c1,"inconclusive [phenotype inactive, partial curve]",–
CCCOc1ccc(CNC(=O)C(CC)n2nc(C)c3sc4ccccc4c3c2=O)cc1 (stereo unspecified),"inconclusive [phenotype inactive, single point]",–
Cc1cccc(C)c1NC(=O)Cn1c(=O)n(CC2CCC(C(=O)NCCc3ccccc3)CC2)c(=O)c2ccccc21 (stereo unspecified),"inconclusive [phenotype inactive, partial curve]",–
Cc1cccc(NC(=O)CSc2nc(-c3ccco3)nc3cc(=O)[nH]n23)c1,"inconclusive [phenotype inactive, single point]",–
COc1cc(NC(=O)c2ccccc2)ccc1NC(=O)c1cc2ccccc2o1,"inconclusive [phenotype inactive, partial curve, poor fit]",–
CCOC(=O)c1cccc(NC(=O)c2ccc3c(Cl)c4c(nc3c2)CCC4)c1,–,inactive: -13.1%
CCOC(=O)c1c(NC(=O)c2ccccc2Cl)sc2c1CCCC2,"inconclusive [phenotype inactive, single point]",–
COc1ccc(Cn2c(=O)c3cccnc3n(Cc3cccc(OC)c3)c2=O)cc1,"inconclusive [phenotype inactive, single point]",–
CCc1ccc(CN(Cc2cn[nH]c2-c2ccc(OC)cc2)C(=O)Nc2ccc(C)c(F)c2)cc1,"inconclusive [phenotype inactive, single point]",–
CCN1CCN(c2oc(/C=C/c3ccccc3OC)nc2C#N)CC1,–,inactive: -5.16%
Cc1ccc(NC(=O)c2cc(S(=O)(=O)N3CCCC(C)C3)cn2C)c(Br)c1 (stereo unspecified),"inconclusive [phenotype inactive, single point]",–

SMILES,Potency,"activity change, negative = inhibition"
CCOC(=O)c1cnc2c(ccc3ccccc32)c1Nc1cccc(OC)c1,"inconclusive [phenotype inactive, single point]",–
COc1ccc(-c2nnc(SCC(=O)NCc3ccc(C)cc3)nc2-c2ccc(OC)c(OC)c2)cc1OC,"inconclusive [phenotype inactive, partial curve]",–
CCn1c(=O)c2sccc2n2c(CCCC(=O)N3CCN(c4cc(Cl)ccc4C)CC3)nnc12,"inconclusive [phenotype inactive, partial curve, poor fit]",–
CCCCn1c(SCC(=O)NCCCOC)nc2c(sc3ccccc32)c1=O,"inconclusive [phenotype inactive, partial curve]",–
CCOc1ccc(C(=O)c2cn(Cc3ccccc3OC)c3ccc(F)cc3c2=O)cc1,"inconclusive [phenotype inactive, single point]",–
CCOc1ccccc1CNC(=O)c1cnc2sc(N3CCCCCC3)nn2c1=O,"inconclusive [phenotype inactive, partial curve]",–
CCOc1ccccc1NC(=O)c1c(NC(=O)c2ccccc2)sc2c1CCCC2,"inconclusive [phenotype inactive, partial curve, poor fit]",–
Cc1ccc(Cl)cc1-n1ncc2c(NC3CCCCCC3)ncnc21,"inconclusive [phenotype inactive, single point]",–
COc1ccc(-c2nn3c(=O)cc(CN4CCN(C(=O)c5ccc(C(C)(C)C)cc5)CC4)nc3s2)cc1,–,inactive: -32.2%
COc1ccc(OC)c(NC(=O)c2noc3c2CCCC3)c1,–,inactive: -7.59%
O=C(CSc1ccccc1)N1CCc2c([nH]c3ccccc23)C1c1ccc(F)cc1 (stereo unspecified),"inconclusive [phenotype inactive, single point]",–
COc1ccc(C2CC(=O)c3cc(-c4nc(-c5cccc(Cl)c5)cs4)c(=O)[nH]c3C2)cc1OC (stereo unspecified),"inconclusive [phenotype inactive, full curve, poor fit]",–
O=C(C1CC1)N1CCc2cc(Br)cc(S(=O)(=O)N3CCN(c4cccc(C(F)(F)F)c4)CC3)c21,"inconclusive [phenotype inactive, partial curve]",–
COc1ccccc1CNC(=O)C1CCCN(c2nc3ccccc3n3cccc23)C1 (stereo unspecified),"inconclusive [phenotype inactive, single point]",–
CCOc1ccccc1NC(=O)C(=O)NCCc1sc(-c2cccc(F)c2)nc1C,"inconclusive [phenotype inactive, full curve]",–
Cc1cccc(C)c1OCCn1c(C2CC(=O)N(c3cccc(Cl)c3)C2)nc2ccccc21 (stereo unspecified),"inconclusive [phenotype inactive, single point]",–
Cc1ccc(CSc2ncc(Cl)c(C(=O)NCCc3ccc(S(N)(=O)=O)cc3)n2)cc1,"inconclusive [phenotype inactive, partial curve]",–
COc1ccc(OCC(=O)OCc2cc(=O)n3cc(C)sc3n2)cc1,"inconclusive [phenotype inactive, single point]",–
